Measurements published in article PMC4336329 (PLoS ONE, 2015).
The whole screen tested about 310,000 compounds, of which about 14,000 (4.5%) showed an effect of 50% or more. Effects have a minus sign here. Some of the results follow.

Target: human ether-à-go-go-related gene (hERG) potassium channel (human, UniProt Q12809)
Experiment: primary screen, population patch clamp on CHO cells stably expressing hERG
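Also: peak tail current of the secondary pulse compared with the same well before compound.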

Chain of human ether-à-go-go-related gene (hERG) potassium channel (Q12809 whole entry, looked up): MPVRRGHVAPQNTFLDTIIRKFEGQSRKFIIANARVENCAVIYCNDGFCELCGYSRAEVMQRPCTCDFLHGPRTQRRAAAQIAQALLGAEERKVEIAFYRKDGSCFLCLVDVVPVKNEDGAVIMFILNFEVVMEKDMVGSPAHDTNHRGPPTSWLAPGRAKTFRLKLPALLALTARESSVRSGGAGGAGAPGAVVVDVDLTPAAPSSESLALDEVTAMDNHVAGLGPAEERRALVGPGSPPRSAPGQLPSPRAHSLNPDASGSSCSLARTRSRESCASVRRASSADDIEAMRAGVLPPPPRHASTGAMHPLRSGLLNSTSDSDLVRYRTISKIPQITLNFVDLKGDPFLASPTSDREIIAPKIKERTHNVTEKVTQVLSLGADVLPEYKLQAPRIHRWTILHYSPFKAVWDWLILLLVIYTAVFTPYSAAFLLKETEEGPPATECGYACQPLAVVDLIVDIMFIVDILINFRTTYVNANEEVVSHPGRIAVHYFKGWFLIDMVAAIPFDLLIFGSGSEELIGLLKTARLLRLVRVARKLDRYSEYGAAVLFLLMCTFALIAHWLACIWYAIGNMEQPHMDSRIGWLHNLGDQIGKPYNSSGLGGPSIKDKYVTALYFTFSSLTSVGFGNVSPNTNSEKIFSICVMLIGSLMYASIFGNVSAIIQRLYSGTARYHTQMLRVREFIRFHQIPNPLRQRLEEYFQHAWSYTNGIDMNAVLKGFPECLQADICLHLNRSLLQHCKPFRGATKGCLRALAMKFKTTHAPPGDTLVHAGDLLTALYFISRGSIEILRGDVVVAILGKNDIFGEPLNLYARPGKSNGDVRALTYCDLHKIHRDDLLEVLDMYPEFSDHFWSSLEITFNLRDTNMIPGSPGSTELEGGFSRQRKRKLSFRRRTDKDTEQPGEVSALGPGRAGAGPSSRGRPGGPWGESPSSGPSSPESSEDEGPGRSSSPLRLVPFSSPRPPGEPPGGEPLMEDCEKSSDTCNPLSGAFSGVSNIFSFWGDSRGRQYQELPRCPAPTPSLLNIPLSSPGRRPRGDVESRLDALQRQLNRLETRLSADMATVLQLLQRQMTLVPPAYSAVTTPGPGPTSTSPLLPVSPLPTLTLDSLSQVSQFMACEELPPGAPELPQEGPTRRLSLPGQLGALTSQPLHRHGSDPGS

Row | Structure (SMILES) | hERG current change (%, negative = inhibition) at 10uM [%]
1 | CCn1c(=S)sc2c(=O)n(CC(=O)Nc3ccc(C(C)=O)cc3)c(C)nc21 | 5.78
2 | CCn1cc(/C=N\NC(=O)c2ccc(F)cc2)cn1 | 5.37
3 | CC(=O)N1CSCC1C(=O)O (stereo not drawn) | 20.6
4 | CC(C)(O)[C@H](O)COc1c2ccoc2cc2oc(=O)ccc12 | 16.1
5 | O=C(Nc1cccnc1)c1sc(Nc2ccccc2F)nc1-c1ccccc1 | 20.5
6 | O=C1C2CCCN2C(c2ccccc2)N1c1ccc(Cl)cc1 (stereo not drawn) | 11.8
7 | Cc1ccc(-c2noc(/C=C/c3ccccc3)n2)cc1 | 7.16
8 | O=C(Nc1c[nH]c(=O)[nH]c1=O)c1cc([N+](=O)[O-])cc([N+](=O)[O-])c1 | 32.3
9 | O=C(NCc1cccc(Cl)c1)c1cc(=O)[nH]c2ccccc12 | 4.81
10 | O=C(OC(C(=O)NC1CCCCC1)c1ccccc1)c1ccco1 (stereo not drawn) | 7.23
11 | O=C1C(=O)N(C2CCS(=O)(=O)C2)C(c2cccc(O)c2)/C1=C(/O)c1ccc(Cl)cc1 (stereo not drawn) | 14.7
12 | COc1ccc(-c2c3c(nc4sc5c(Cl)nc(C)nc5c24)CCC3)cc1 | 17.7
13 | CSc1nnc(-c2sccc2-n2cccc2)o1 | 27.4
14 | Cc1ccc(-c2n[nH]c(=S)n2/N=C/C=C/c2ccccc2[N+](=O)[O-])cc1 | -4.99
15 | O=C(NCc1cc(C(F)(F)F)ccc1F)C1CCC(=O)N(C2CC2)C1 (stereo not drawn) | 9.91
16 | CC1CC(C)CN(C(=O)CCC(=O)Nc2nnc(C3CCCCC3)s2)C1 (stereo not drawn) | 14.2
17 | CCSc1ccc([C@@H]2[C@@H]3C(=O)N(C)C(=O)[C@@H]3[C@]3(C(=O)OC)CCCCN23)cc1.O=C(O)C(F)(F)F | 14.5
18 | CCOC(=O)c1c(-c2ccccc2)csc1NC(=O)/C(C#N)=C/c1ccc(O)c(OC)c1 | -7.1
19 | Cc1ccc(Cl)cc1NC(=O)CN1C(=O)NC2(CCCCCC2)C1=O | -15.2
20 | Cc1ccc(Cn2ncc3c(N4CCN(c5ccccc5C)CC4)ncnc32)cc1 | 10.7
21 | Cc1ccc(C(=O)Oc2ccc3c(c2)ncn3C)cc1 | -3.22
22 | COc1ccc(C[C@H]2CN3C(=NC[C@@H]3Cc3ccc(O)cc3)N2CCNC(=O)c2ccc(C)c(Br)c2)cc1 | -74.3

Row | Structure (SMILES) | hERG current change (%, negative = inhibition) at 10uM [%]
23 | CCOc1cc(N2CCOCC2)c(OCC)cc1NC(=O)C1CC(=O)N(c2ccc(C)cc2)C1 (stereo not drawn) | -2.64
24 | CC(C)(C)C(=O)c1sc2nc(-c3cccs3)cc(C(F)(F)F)c2c1N | 10.7
25 | Cc1cc(Cl)ccc1OCC(=O)NNC(=O)C1CSC2(C)CCC(=O)N12 (stereo not drawn) | -18.5
26 | COc1cc(/C=C2\SC(N)=NC2=O)cc(OC)c1 | 4.6
27 | CCn1c(COc2ccc(C)cc2)nnc1SCC(=O)NCc1ccco1 | -22.1
28 | COc1cccc(C(=O)Cn2c(=O)n(CC3CCCO3)c(=O)c3ccccc32)c1 (stereo not drawn) | -10.4
29 | O=C(O)c1cc2c(ccc3ccccc32)[nH]1 | 3.61
30 | COc1ccc(NC(=O)O/N=C/c2ccncc2)cc1 | 22
31 | COc1ccc(CNC(=O)c2c(N)n(CCCN3CCOCC3)c3nc4ccccc4nc23)cc1 | -12.7
32 | Cc1ccc(CNC(=O)CN(c2cccc([N+](=O)[O-])c2)S(C)(=O)=O)cc1 | 0.796
33 | Cl.N=c1sccn1CC(=O)Nc1ccc(SC(F)F)cc1 | -62.1
34 | Cc1ccc(-c2nn(CCC(=O)NN3CCOCC3)c(=O)c3ccccc23)cc1 | -15.9
35 | CCN(C(=O)COC(=O)CNC(=O)c1ccc(F)cc1)C1CCS(=O)(=O)C1 (stereo not drawn) | 10.4
36 | CS(=O)(=O)Nc1ccccc1C(=O)c1ccccc1 | 6.76
37 | Cn1c(N)c(C(=O)COC(=O)C2(c3ccc(F)cc3)CCCC2)c(=O)n(C)c1=O | 6.15
38 | CCOc1ccc2nc(NCCCNS(=O)(=O)c3ccc(C)cc3)c(C#N)cc2c1 | -1.41
39 | O=C(Cc1cccs1)Nc1cccc([N+](=O)[O-])c1 | 1.06
40 | Fc1cccc(Cl)c1/C=N/n1c(-c2cccnc2)n[nH]c1=S | 31.3
41 | CC(C)(C)c1ccc(Cn2c(=N)n(CC(O)c3ccco3)c3ccccc32)cc1.Cl (stereo not drawn) | -71.9
42 | CCOc1ccc(S(=O)(=O)N2CCCCC2)cc1NC(=O)CCc1ccc(OC)cc1 | 14.4
43 | O=C(O)Cc1c(-c2ccccc2)c2cc(Br)ccc2[nH]c1=O | 12
44 | CCCOc1ccc(N2C(=O)CC(NCC(=O)OCC)C2=O)cc1 (stereo not drawn) | 8.44

Row | Structure (SMILES) | hERG current change (%, negative = inhibition) at 10uM [%]
45 | Clc1ccc2c(c1)C1=C(C(c3ccncc3)O2)C(c2ccc(Br)cc2)n2ncnc2N1 (stereo not drawn) | 4.44
46 | Cc1cc(C)c[n+](-c2nc3ccccc3nc2[N-]S(=O)(=O)c2ccc(Cl)cc2)c1 | -6.09
47 | O=C(O)c1ccccc1SCC(=O)N1CCOCC1 | 14.7
48 | CCOC(=O)CNC(=O)c1cc(OC)cc(OC)c1 | 15.2
49 | COc1cc(CN2CCCCC2C(=O)Nc2ccc(Oc3ccccc3)nc2)ccc1O (stereo not drawn) | -4.36
50 | CCc1nnc(NS(=O)(=O)c2ccc(N=Cc3c(O)n(-c4ccccc4)c(=O)[nH]c3=O)cc2)s1 | 13.2
51 | CC(C)CCn1c(-c2nonc2N)nc2ccccc21 | 4.68
52 | O=C(O)C(Cc1ccccc1)Nc1ccc([N+](=O)[O-])cc1[N+](=O)[O-] (stereo not drawn) | 19.2
53 | O=C(NC1CCCC1)C(c1ccncc1)N(C(=O)c1csnn1)c1ccc(F)c(Cl)c1 (stereo not drawn) | -4.2
54 | CCOc1cc(CNCCO)cc(Br)c1OCc1ccc(Cl)cc1.Cl | -16.5
55 | Cc1ccc(-n2ncc3c(=O)n(CC(=O)NCc4ccco4)cnc32)cc1 | 16.3
56 | CCOC(=O)CN1CC23C=CC(O2)C(C(=O)NCc2ccccc2OC)C3C1=O (stereo not drawn) | -22.6
57 | COc1ccc(C(=O)Nc2ccnn2C2CCN(Cc3ccncc3)CC2)cc1 | -8.86
58 | O=C(Nc1ccc(N2CCOCC2)cc1)Nc1ccc2nc(-c3ccco3)c(-c3ccco3)nc2c1 | -17.3
59 | Cc1cc(NC(=O)CSCC(=O)Nc2nc3ccc(F)cc3s2)no1 | 7.74
60 | CCOC(=O)Cc1c(C)nc2c(-c3ccc(Cl)cc3)cnn2c1C | 3.77
61 | Cc1sc2ncnc(N3CCC(C(=O)Nc4ccccc4C(C)(C)C)CC3)c2c1C | -15.2
62 | CCN(CC)Cc1csc(C(N)=O)c1 | 14.6
63 | O=C(Nc1nc2c(F)cc(F)cc2s1)c1ccc([N+](=O)[O-])o1 | 21.1
64 | COc1ccc(Cl)cc1N1Cc2ccccc2C1 | -3.46
65 | CCOC(=O)C1=C(COC(=O)/C=C/c2cccc([N+](=O)[O-])c2)NC(=O)NC1C (stereo not drawn) | 11.7
66 | COc1ccc(-c2csc(NC(=O)CN3C(=O)NC4(CCCC4)C3=O)n2)cc1 | -2.27

Row | Structure (SMILES) | hERG current change (%, negative = inhibition) at 10uM [%]
67 | CC(C)c1ccccc1NC(=O)COc1ccc(C(=O)NCCc2ccccc2)cc1 | -2.08
68 | Cc1cc(C)c(C#N)c(SCC(=O)c2cc(C)n(CCc3ccccc3)c2C)n1 | 18.4
69 | CCCCn1nnnc1NCc1ccc(N2CCCC2)cc1 | -7.72
70 | CCOc1ccccc1NC(=O)c1ccc2c(=O)n3c(nc2c1)CCCCC3 | -58.6
71 | COc1cccc(-c2ccc3ncnc(NCc4cccs4)c3c2)c1 | 3.11
72 | CCOC(=O)Nc1ccc2c(COC(=O)CN(C)S(=O)(=O)c3ccc(C)cc3)cc(=O)oc2c1 | -7.1
73 | CC1CC(C)CN(S(=O)(=O)c2ccc(NC(=O)[C@@H]3CCCN3C(=O)c3cccs3)cc2)C1 (stereo partly drawn) | 1.69
74 | COc1cccc(CNC(=O)CCC2CCCN(C(=O)c3cc(C4CC4)[nH]n3)C2)c1 (stereo not drawn) | 14.5
75 | O=C(NNC(=O)c1ccccc1-c1ccccc1C(=O)O)c1ccccc1 | 21.7
76 | O=C(COc1ccccc1)Nc1nc(-c2cccs2)cs1 | 5.72
77 | CC(=O)c1cc2c(cc1NC(=O)Cc1ccsc1)OCO2 | 10.9
78 | CN1CCN(NC(=O)NC2CCCCC2)CC1 | 7.42
79 | COc1ccc(CNC(=S)Nc2ccc(Br)cc2)cc1 | 13.9
80 | CCCOc1ccc(C2CC(=O)Nc3cc(OC)c(OC)cc32)cc1 (stereo not drawn) | 13.7
81 | CC(C)C(=O)Nc1cccc(C(=O)Nc2nccs2)c1 | 11.5
82 | CC1(C)NC(=O)N(CC(O)COc2ccc(-c3ccccc3)cc2)C1=O (stereo not drawn) | 10.2
83 | O=C(CN1CCOCC1)Nc1nc2ccc(Br)cc2s1 | -50
84 | O=C1CSC(c2cccc(Cl)c2Cl)N1c1ccccn1 (stereo not drawn) | 2.52
85 | Nc1ccc(Nc2ccccc2N)cc1 | -12.2
86 | CC(=O)Nc1ccc(SCC(=O)OCC(=O)NC(=O)NC2CCCC2)cc1 | 16.2
87 | CCOCC(=O)Nc1nc(-c2ccccc2)c(CC)s1 | -13.8
